Assay results taken from PubChem BioAssay AID1346428 (National Center for Advancing Translational Sciences (NCATS), 2018).
Several values for one entry are separate records, joined by “and”; a condition that tells them apart may be missing. Identical values can stand only once. The whole screen tested about 48,000 compounds, of which about 1,200 (2.5%) were called active. Not shown: some 2% with an inconclusive outcome.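 The calls were made as follows: active = activation of at least 60% and not above a set upper limit (about 1 call in 100 departs from these limits); inconclusive = activation of 40% to 60%, or above that upper limit; inactive = activation under 40%.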 Some of the results follow. More than one record can exist for a structure, and the calls need not agree.

Each compound was assayed against Probable G-protein coupled receptor 32 (Homo sapiens) (UniProt O75388) (assay: qHTS for Agonists of Human Resolvin D1 Receptor DRV1). Conditions: CHO-K1 GPR32 beta-arrestin PathHunter luminescence, 90 min; at 76.9 µM; stronger effect = higher value; zero percent set by DMSO-only wells.
Summary of the method: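 Readings come from a cell-based beta-arrestin complementation format: CHO-K1 GPR32 stable cells (2,500/well) treated 90 min with compounds, then beta-Gal substrate added for 1 h before chemiluminescence imaging.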
Also: 0% is about no effect.

UniProt O75388, sequence (O75388 whole entry, looked up): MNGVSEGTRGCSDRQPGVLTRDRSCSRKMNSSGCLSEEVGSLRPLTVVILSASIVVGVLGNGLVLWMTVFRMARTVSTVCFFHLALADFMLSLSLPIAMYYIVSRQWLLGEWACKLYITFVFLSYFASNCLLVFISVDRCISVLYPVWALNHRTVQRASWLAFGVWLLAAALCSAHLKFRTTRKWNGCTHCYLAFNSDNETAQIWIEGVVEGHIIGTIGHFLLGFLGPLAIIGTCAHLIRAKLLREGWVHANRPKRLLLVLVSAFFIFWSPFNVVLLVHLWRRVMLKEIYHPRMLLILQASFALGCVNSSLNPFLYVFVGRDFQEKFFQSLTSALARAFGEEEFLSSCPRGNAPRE

| SMILES | activation |
| --- | --- |
| COc1ccc(CNC(=O)CCS(=O)(=O)c2ccc3c(c2)oc(=O)n3C)cc1 | inactive: 1.88% |
| Cc1ccc(CNC(=O)c2ccc3c(O)c(S(=O)(=O)c4ccccc4)c(=O)[nH]c3c2)cc1 | inactive: 6.95% |
| CCOC(=O)N1CCC(NC(=O)c2ccc3c(c2)N(Cc2ccc(F)cc2)C(=O)c2ccccc2S3(=O)=O)CC1 | inactive: -28.6% |
| CCOc1ccc(NC(=O)C(NS(=O)(=O)c2ccc3c(c2)CCN3C(C)=O)C(C)C)cc1 (configuration not stated) | inactive: -2.11% |
| O=C(CSc1nc2ccccc2nc1Cc1ccc(Cl)cc1)NCCc1ccccc1 | inactive: -10.4% |
| CCOc1ccccc1NC(=O)c1nnn(CC(=O)Nc2ccc(OC)c(OC)c2)c1N | inactive: -7.34% |
| CC(=O)c1ccc(N2CCN(S(=O)(=O)c3ccc4[nH]c5c(c4c3)CCCC5)CC2)cc1 | inactive: -5.85% |
| O=c1c2c(-c3ccc(Cl)cc3)ccnc2[nH]n1-c1ccccc1 | inactive: 18% |
| O=C(NCCC1=CCCCC1)c1ccc2c(c1)ncn2-c1ccc(F)c(F)c1 | inactive: -15% |
| CC(=O)Nc1cccc(NC(=O)c2c(-c3ccccc3)c(-c3ccccc3)nn(C)c2=O)c1 | inactive: -12.6% |
| CCCN(CCC)C(=O)CSc1nc2sc3c(c2c(=O)n1-c1ccccc1)CCN(C(C)=O)C3 | inactive: -5.88% |
| CCc1ccccc1NS(=O)(=O)c1ccc2c(c1)OCC(C(=O)N1CCCC1)O2 (configuration not stated) | inactive: 0.0187% |
| CCOCc1cc(CN2CCN(c3cccc(Cl)c3)CC2)c(O)c2ncccc12 | inactive: 0.9% |
| C=Cc1c(C)c2cc3[nH]c(cc4nc(cc5nc(cc1[nH]2)C(C)=C5CCC(=O)O)C(CCC(=O)O)=C4C)c(C)c3C=C | inactive: 0.946% and inactive: -10.3% |
| COc1ccc(OC)c(C2c3c(oc4ccc(C)cc4c3=O)C(=O)N2CCCN(C)C)c1 (configuration not stated) | inactive: -11.9% |
| O=C(NCc1cccc(F)c1)c1cccc(NC(=O)c2nsc3ccccc23)c1 | inactive: -0.929% |
| CCc1ccc(Nc2nc(N)nc(CSc3nc4ccccc4s3)n2)cc1 | inactive: 34.8% |
| CCN(Cc1ccccc1)Cc1c(O)ccc2c(=O)c(-c3ccccc3Cl)c(C(F)(F)F)oc12 | inactive: -14.1% |
| Fc1ccc(-c2cn3cc(Cc4ccc(Cl)cc4)sc3n2)cc1 | inactive: 15.7% |
| CCOc1ccc(-c2nnc(SCC(=O)NCc3ccc(C)cc3)nc2-c2ccc(OCC)cc2)cc1 | inactive: -15.7% |
| CCC(CC)C(=O)Nc1cccc(-c2nc3ccccc3s2)c1 | inactive: -3.61% |

| SMILES | activation |
| --- | --- |
| Cc1cccc(-n2ncc3c(NC4CCCC4)ncnc32)c1 | active: 114% |
| COc1cccc(CNC(=O)C2CCN(c3nnc(-n4c(C)ccc4C)s3)CC2)c1 | inactive: -19.1% |
| CCc1ccc(-n2nc3ccc(NC(=O)c4ccc(C#N)cc4F)cc3n2)cc1 | inactive: 27.5% |
| CCOc1ccccc1C1CC(=O)Oc2c1c(=O)n(C)c1ccccc21 (configuration not stated) | inactive: -1.97% |
| Cc1ccc(Cl)cc1NC(=O)Cn1c(=O)c2ccccc2n2nncc12 | inactive: 1.62% |
| CCC(C(=O)Nc1cc(-c2nc3cccnc3s2)ccc1C)c1ccccc1 (configuration not stated) | inactive: -17.8% |
| CC1=C(C(=O)Nc2ccc(C)cc2C)C(c2ccccc2)n2ncc(C(=O)Nc3ccccc3)c2N1 (configuration not stated) | inactive: -15.1% |
| CCOC(=O)c1c(-c2ccccc2)csc1NC(=O)c1cc(-c2ccc(Cl)cc2)on1 | inactive: -0.28% |
| Cc1ccccc1-c1nc2cc(NC(=O)COc3ccc(F)cc3)ccc2o1 | inactive: 16.2% |
| Cc1c(CC(=O)NCCc2ccc(Cl)cc2)c(=O)oc2c(C)c3occ(C(C)(C)C)c3cc12 | inactive: -20.2% |
| Cc1ccc(NC(=O)C2CCCN(S(=O)(=O)c3cccc4cccnc34)C2)c(C)c1 (configuration not stated) | inactive: -23.9% |
| COC(=O)c1ccc2c(=O)n(CCCCCC(=O)N3CCN(c4ccc(OC)cc4)CC3)c(=O)[nH]c2c1 | inactive: -28.5% |
| CCOC(=O)c1sc(NC(=O)c2cc(-c3ccc(F)cc3)on2)c(C(=O)OCC)c1C | inactive: -4.43% |
| CCOc1ccc(CNC(=O)c2ccc(Sc3ccc(Cl)cc3)c(NC(C)=O)c2)cc1OC | inactive: -11.6% |
| COC(=O)C1=C(C)NC(C)=C(C(=O)OCCN2CCN(C(c3ccccc3)c3ccccc3)CC2)C1c1cccc([N+](=O)[O-])c1 (configuration not stated) | inactive: -31.1% |
| CCS(=O)(=O)c1nc(S(=O)(=O)c2ccc(Cl)cc2)c(NCc2ccccc2Cl)s1 | inactive: -12.4% |
| O=C(Nc1ccccc1C(=O)OCc1cc(=O)n2c3c(sc2n1)CCCC3)c1cccc(Cl)c1 | inactive: -21% |
| CCc1ccccc1NC(=O)NCc1ccc2c(c1)CCN2C(=O)c1ccccc1 | inactive: -23.8% |
| COC(=O)c1c(-c2ccc(Cl)cc2)noc1N1CCN(c2cccc(C(F)(F)F)c2)CC1 | inactive: 2.5% |
| O=C(CSc1nccn1Cc1ccccc1)NCc1ccccc1Cl | inactive: -1.69% |
| CCCn1ccc2c(OCC(=O)NCc3ccccc3Cl)cccc2c1=O | active: 68.8% |

| SMILES | activation |
| --- | --- |
| CCOC(=O)CC(NC(=O)N1CCC(CN2CCC(C)CC2)CC1)c1ccccc1 (configuration not stated) | inactive: 7.83% |
| Cc1cc(C)nc(NS(=O)(=O)c2ccc(NC(=O)COc3ccc(C(C)(C)C)cc3)cc2)n1 | inactive: 12.7% |
| CC1(C)[C@@H]2CC[C@@]1(C)C(=O)C2 | inactive: -6.21% |
| Cc1cccc(C)c1Nc1c(-c2ccsc2)nc2ccc(Cl)cn12 | inactive: -16.3% |
| CC(C)Cn1cc(NC(=O)N2CCN(c3ccccc3F)CC2)c2ccccc2c1=O | inactive: -11.7% |
| COc1ccc(OC)c(CCNC(=O)c2cnn(-c3ccccc3)c2C2CCN(C(=O)OC(C)(C)C)CC2)c1 | inactive: -23.7% |
| Cc1cccc(CNC(=O)CCn2ccc3cc(S(=O)(=O)N4CCCC4)ccc32)c1 | inactive: -27.8% |
| COc1ccc(-c2cn3nc(N4CCCC(C(=O)NCc5ccccc5Cl)C4)sc3n2)cc1 (configuration not stated) | inactive: -14.3% |
| COC(c1ccccc1)(c1ccccc1)[C@H](Oc1nc(C)cc(C)n1)C(=O)O | inactive: -1.85% |
| COC(=O)c1cc2oc3ccccc3c2n1Cc1cc(C)ccc1C | inactive: -21.4% |
| COc1cc(OC)cc(N2CCN(S(=O)(=O)c3ccc(-n4cnnn4)cc3)CC2)c1 | inactive: -0.884% |
| O=c1c(N2CCN(c3cccc(C(F)(F)F)c3)CC2)csc2ccc(Cl)cc12 | inactive: -57.4% |
| Cc1ccccc1CSc1nc2c(sc3ccccc32)c(=O)n1CCCOC(C)C | inactive: 20.7% |
| O=C1CC(c2ccccc2)Cc2[nH]c(=O)c(-c3nc(-c4ccc(Cl)cc4)cs3)cc21 (configuration not stated) | inactive: 4.55% |
| CCN1CCN(C(c2cccc(F)c2)c2c(O)cc(C)n(Cc3ccco3)c2=O)CC1 (configuration not stated) | inactive: -15.7% |
| Cc1nn(C)c2c1c(-c1ccccc1)cc(=O)n2C(C)C(=O)NCc1ccc(F)cc1 (configuration not stated) | inactive: -14% |
| Cc1ccc(-n2nnnc2CNC(=O)C(C)C)cc1C | inactive: 4.49% |
| CCSc1nnc2c(n1)OC(CC)N(C(C)=O)c1ccccc1-2 (configuration not stated) | inactive: 2.02% |
| CC(=O)c1cccc(NC(c2ccc(F)cc2)c2nnc(-c3ccccc3)o2)c1 (configuration not stated) | inactive: 18.9% |
| Cc1nn(-c2ccccc2)c2sc(C(=O)Nc3ccccc3Br)cc12 | inactive: -0.778% |
| Cc1ccc(NC(=O)CN2C(=O)C3(SCC(=O)N3c3cccc(Cl)c3)c3ccccc32)cc1C (configuration not stated) | inactive: 21.3% |

| SMILES | activation |
| --- | --- |
| CCCN1C[C@H](CSC)C[C@@H]2c3cccc4[nH]cc(c34)C[C@H]21 | active: 79.4% and inactive: -7.97% |
| Cc1cccc(C(=O)Nc2nnc(S(=O)(=O)N(C)Cc3ccco3)s2)c1 | inactive: 21.5% |
| COc1ccc(CCNC(=O)CSc2nc(-c3ccc(F)cc3)cc(C(F)(F)F)n2)cc1OC | inactive: 7.81% |
| Nc1c(C(=O)Nc2ccc(C(=O)O)cc2)sc2nc3c(cc12)CCCC3 | inactive: 26.7% |
| Cc1ccc(NS(=O)(=O)c2ccc3c(c2)CCCN3C(=O)C2CCC2)cc1Cl | inactive: -2.37% |
| O=C(Nc1nnc(S(=O)(=O)Nc2ccccc2)s1)c1ccccc1Cl | inactive: -3.5% |
| CCc1noc(-c2ccc(N3CCCCC3C)c([N+](=O)[O-])c2)n1 (configuration not stated) | inactive: -21.9% |
| O=C(NCc1ccc2c(c1)CCN2C(=O)c1ccc(Cl)cc1)c1cccc(F)c1 | inactive: -10.1% |
| Cc1ccc(NC(=O)CCS(=O)(=O)c2cc3c4c(c2)CCN4C(=O)CC3)c(C)c1 | inactive: 5.73% |
| COc1cc(OC)cc(C(=O)Nc2ccc(S(=O)(=O)Nc3ncccn3)cc2)c1 | inactive: -1.11% |
| Cc1nc2nncn2c(NCc2ccc(F)cc2)c1C | inactive: 43.8% |
| COCCNc1nc2c(S(=O)(=O)c3ccc(C)c(C)c3)nnn2c2ccc(Cl)cc12 | inactive: 0.763% |
| CC(=O)Nc1ccccc1 | inactive: 3.53% |
| O=C1OC2(c3ccccc31)c1cc(I)c(O)c(I)c1Oc1c2cc(I)c(O)c1I | inactive: -63.6% |
| CCC(Oc1ccccc1)C(=O)Nc1cc(-c2ccccc2OC)nn1-c1ccccc1 (configuration not stated) | inactive: 19% |
| CCCCN(C)C(=O)C1CCC(CNS(=O)(=O)c2ccc(Cl)cc2)CC1 (configuration not stated) | inactive: -2.25% |
| Cc1ccc(-c2nc3c(c(SCC(=O)Nc4ccccc4Cl)n2)Cc2c(CO)cnc(C)c2O3)cc1 | inactive: 4.94% |
| CCOC(=O)c1c(S(=O)(=O)NCC(=O)NCc2cccc(C)c2)c(C)n(C)c1C | inactive: -27.4% |
| CC(=O)Nc1ccc(NC(=O)c2oc3ccc4c(c3c2C)C(=O)CC(C)(C)O4)cc1 | inactive: 20.1% |
